The labels stand for the following.
B1: LINE1-full (parent)
chain: UACGUAGGUGGUUUUCCCCUGAUAGUGCUAAGGGGGCCUGGAAGUUUGGACUGGGCAGAGCUCAACACAGCGUGGCAAAGUGGCUGUGGCUAGACUGCCUCUCUGGAUUCCUCGUCACUCAGCAGGGCAUCUCUGAGAGAAAUGCC

The source gives no read counts; variants with many changes may rest on few reads.

The variants in this data set derive from B1. The data set is described as follows: self-cleavage, relative activity (ratio to wild type); higher = more cleavage; in vitro, sequencing; the parent is a self-cleaving ribozyme.
For the variant UACGUAGGUGGUUUUCCCCUGAUAGUGCUAAGGGGGCCUGGAAGUUUGGGAUGGGCAGAGCUCAACACAGCGUGGCGAAGUGGCUGUGGCUAGACUGCCUCACUGGAUUCCUCGUCACUCAGCAGGGCAUCUCUGAGAGAAAUGCC, the self-cleavage stood at 2.73.

For the variant UACGUAGGUGGUUUUCCCCUGAUAGUGCUAAGGGGGCCUGGAAGUUUGGGCUGGGCAGAGCUCAACACAGCGUGGCAAAGUGGCUGUGGCUAGACUGCCUCUCUGGAUUCCUCGUCACUUAGCAGGGCAUCCCUGAGAGAAAUGCC, the self-cleavage turned out to be 1.04.

For UACGUAGGUGGUUUUCCCCUGAUAGUGCUAAGGGGGCCUGGAAGUUUGGGCUGGGCAGAGUUCAACACAGCGUGGCAAAGUGGCUGUGGCUAGACUGCCUCUCUGGAUUCCUCGUCACUCAGCAGGGCACCUCUGAGAGAAAUGCC, the self-cleavage was determined as 0.13.

UACGUAGGUGGUUUUCCCCUGAUAGUGCUAAGGGGGCCUGGAAGUUUGGGCUGGGCAGAGCUCAACACAGCGUGGCAAAGUGGCUGUGGCUAGACUGGCUCUCUGGAUUCCUCGUCACUCAGCAGGGUAUCUCUGAGAGAAAUGCC: the self-cleavage amounted to 0.04.

With UACGUAGGUGGUUUUCCCCUGAUAGUGCUAAGGGGGCCUGGAAGUUUGGGCUGGGCAGAGCUCAACACAGCGUGGCAAAGUGACUGUGGCUAGACAGCCUCUCUGGAUUCCUCAUCACUCAGCAGGGCAUCUCUGAGAGAAAUGCC, the self-cleavage stood at 0.05.

Turning to UACGUAGGUGGUUUUCCCCUGAUAGUGCUAAGGGGGCCUGGAAGUUUGGGCUGGGCAGAGCUCAACACGGCGUGGCAAAGUGGCUGUGGCUAGACUGCUUCUCUGGAUACCUCGUCACUCAGCAGGGCAUCUCUGAGAGAAAUGCC, the self-cleavage was 0.13.

In the case of UACGUAGGUGGUUUUCCCCUGAUAGUGCUAAGGGGGCCUGGAAGUUUGGGCAGGGCAGAGCUCAACACAGCGUGGCAAAGUGGCUGUGGCUAGACUGCCUCCCUGGAUUCCUCGACACUCAGCAGGGCAUCUCUGAGAGAAAUGCC, the self-cleavage is 1.02.

With UACGUAGGUGGUUUUCCCCUGAUAGUGCUAAGGGGGCCUGGAAGUUUGGGCUGGGCAGAGCUCAACGCAGCGUGGCAAAGUGGCUGUAGCUAGACUGCCUCUCUGGAUUCCUAGCCACUCAGCAGGGCACCUCUGAGAGAAACGCC, the self-cleavage turned out to be 0.03.

In the case of UACGUAGGUGGUUUUCCCCUGAUAGUGCUAAGGGGGCCUGGAAGUUUGGGCUGGGCAGAGCCCAACCCAGCGUGGCAAAGUGGCUGUGGCUAGACUGCCUCUCUGGAUUCCUCGACACUCAGCAGGGCAUCUCUGAGAGAAAUGCC, the self-cleavage was 0.

For UACGUAGGUGGUUUUCCCCUGAUAGUGCUAAGGGGGCCUGGAAGUUUGGGCUGGGCAGAGCUCGACACAGCGUGGCAAAGUGGCUGUGGCUAGACUGCCUCUCUGGAUUCCUCGUCACUCAGCAGGGCAUCUCUGAGAGAGAUGCC, the self-cleavage was 0.41.

As to UACGUAGGUGGUUUUCCCCUGAUAGUGCUAAGGGGGCCUGGAAGUUUGGGCUGGGCAGAGCUCAACACAGCGUGGCAUGGUGGCUGUGGCUAGACUGCCUCUCUGGAUUCCUCGUCACUCAGCAGGGCAUCUCUGAGAGAAAUGCC, the self-cleavage came out at 2.35.

On to UACGUAGGUGGUUUUCCCCUGAUAGUGCUAAGGGGGCCUGGAAGUUUGGGCUGGGCAGAGCUCAACACAGCGUGGCAAGGUGGCUGUGGCUAGACUGCCUCUCUGGAUUCCUCGUCACUCAGCAGGGCACCUCUGAGAGAAAUGCC, for which the self-cleavage was found to be 1.67.

Consider UACGUAGGUGGUUUUCCCCUGAUAGUGCUAAGGGGGCCUGGAAGUUUGGGCUGAGCAGAGCUCAACGCAGCGUGGCAAAGUGGCUGUGGCUAGACUGCCUCUCUGGAUUCCUCGUCACUCAGCGGGGCAUCUCUGAGAGAAAUGCC, for which the self-cleavage was 0.

On to UACGUAGGUGGUUUUCCCCUGAUAGUGCUAAGGGGGCCUGGAAGUUUGGGCUGGGCAGAGCUCAACACAGCGUGGCAAAGUGGCUGUGGCUAGGCUGCCUCUCUGGAUACCUCGUCACUCAGCAGGGCAUCUCUGAGAGAAGUGCC, for which the self-cleavage was found to be 0.

Regarding UACGUAGGUGGUUUUCCCCUGAUAGUGCUAAGGGGGCCUGGAAGUUUGGGCUGGGCAGAGCUCAACACAGCGUGGCAAAGUGGCUGUGGCUAGACUGCCUCUCUGGAUUCCUCGUCGCCCAGCAGGGCAUCUCUGAGAGAAAAGCC, the self-cleavage came out at 1.31.

Turning to UACGUAGGUGGUUUUCCCCUGAUAGUGCUAAGGGGGCCUGGAAGUUUGGGCUGGGCAGAGCUCAACACAGCGUGGCUAAGUGGCUGUGGCUAGACUGCCUCUCUGGAUUCCUCGUCACUCAGCAGGACAUCUCUGAGAGAGAUGCC, the self-cleavage was 0.83.

Regarding UACGUAGGUGGUUUUCCCCUGAUAGUGCUAAGGGGGCCUGGAAGUUUGGGCUGGGCAGAGCUCUACACAGCGUGGCAAAGUGGCUGUGGCUAGACUGCCUCUCUGGAUUCCUCGUCUCUCAGCAGGGCAUCUCUGAGAGAAAUGCC, the self-cleavage was determined as 0.51.

For UACGUAGGUGGUUUUCCCCUGAUAGUGCUAAGGGGGCCUGGAAGUUUGGGCUGGGCAGAACACAACACAGCGUGGCAAAGUGGCUGUGGCUAGACUGCCUCUCUGGAUUCCUCGUCACUCAGCAGGGCAUCACUGAGGGAAAUGCC, the self-cleavage worked out at 0.06.

Consider UACGUAGGUGGUUUUCCCCUGAUAGUGCUAAGGGGGCCUGGAAGUUUGGGCUGGGCAGAGCUCAACACAGCGUGGCAAAGUGGCUGUGGCUAGUCUGCCUCUCUGGAUUCCUCGUCGCUCAGCAGGGCAUCUCUGAGAGAAAUGCC, for which the self-cleavage was 0.

Take UACGUAGGUGGUUUUCCCCUGAUAGUGCUAAGGGGGCCUGGAAGUUUGGGCUGGGCAGAGCUCAACACGGCGUGGCAAAGUGGCUGUGGCUAGUCUGCCUCUCUGGAUUCCUCGUCACUCAGCAGGGCAUCUCUGAGAGUAAUGCC: the self-cleavage was 0.2.

UACGUAGGUGGUUUUCCCCUGAUAGUGCUAAGGGGGCCUGGAAGUUUGGGCUGGGCAGAGUUCAACACAGCGUGGUAAAGUGGCCGUGGCUAGACUGCCUCUCCGGAUUCCUCGUCUCUCUGCAGGGCAUCUCUGAGAGAAAUGCC: the self-cleavage stood at 0.05.

UACGUAGGUGGUUUUCCCCUGAUAGUGCUAAGGGGGCCUGGAAGUUUGGGCUGAGCAGAGCUCAACACAGCGUGGCAAAGUGGCAGUGGCUAGACUGCCUCUCUGGAUUCCUCGUCACUCAGCUGGGCAUCUCUGAGAGAAAUGCC: the self-cleavage worked out at 0.08.

On to UACGUAGGUGGUUUUCCCCUGAUAGUGCUAAGGGGGCCUGGAAGUUUGGGCUGGGCAGAGCUCUACACAGCGUGGCAAAGUGGCUGUGGCUAGACUGCCUCUCUGGAUUCCUCGUCACACAGCAGGGCAUCUCUGAGAGAAAUGCC, for which the self-cleavage came to 0.61.

In the case of UACGUAGGUGGUUUUCCCCUGAUAGUGCUAAGGGGGCCUGGAAGUUUGGGCUGGGCAGAGCUCAACGCAGCGUGGCGAAGUGGCUGUGGCUAGACUGCCUUUCUGGAUUCCUCGUCACUCAGCAGGGCAUCUCUGAGAGAGAUGCC, the self-cleavage stood at 1.84.

Turning to UACGUAGGUGGUUUUCCCCUGAUAGUGCUAAGGGGGCCUGGAAGUUUGGGCUGGGCAGAGCCCAACACAGCGUGGCAAAGUGGCUGUGGCUAGACUGCCUCUCUGGAUUCCUCGUCGCACAGCAGGGCAUCUCUGAGAGAAAUGCC, the self-cleavage was 0.

Consider UACGUAGGUGGUUUUCCCCUGAUAGUGCUAAGGGGGCCUGGAAGUUUGGGCUGGGCAGAGCUCAACACAGCGUGGCAAAGUGGCUGUGGCUAGACUGCCUCUCUGGAUUCCUCGUCACUCAGCGGGGCAUCUCUGAGAGAAUUGCC, for which the self-cleavage stood at 0.41.

On to UACGUAGGUGGUUUUCCCCUGAUAGUGCUAAGGGGGCCUGGAAGUUUGGGCUGGGCAGAGCUCAACACGGCGUGGCAAAGUGGCUGUGGCUAGACUGCCUCUCUGGAUUCCUCGUCACUUAGCCGGGCAUCUCUGUGAGAAAUGCC, for which the self-cleavage came to 1.84.

Take UACGUAGGUGGUUUUCCCCUGAUAGUGCUAAGGGGGCCUGGAAGUUUGGGCUGGGCAGAGCUCAACACGGCGUGGCAAAGUGGCUGUGGCUAGACUGCCUCUCUGGAUUCCUCGUCACUAAGCAGGGCAUCUCUGAGAGAAAUGCC: the self-cleavage turned out to be 0.22.

As for UACGUAGGUGGUUUUCCCCUGAUAGUGCUAAGGGGGCCUGGAAGUUUGGGCUGGGCAGAGCUCAACACAGCGUGGCAAAGUGGCUGUGGCUAGACUGCCUCUCUGGAUUCCUCGUCACUCGGCAUGGCAUCCCUGAGAGAAAUGCC, the self-cleavage came out at 1.31.

Take UACGUAGGUGGUUUUCCCCUGAUAGUGCUAAGGGGGCCUGGAAGUUUGGGCUGGGCAGAGCUCAACACAGCGUGGCAAAGUGGCUGUGGCUAGACUGCCUCUCUGGAUUCCUCGUCACUCAGCAGGGCGUCCCUGAGAGAAAUGCC: the self-cleavage amounted to 0.99.

Turning to UACGUAGGUGGUUUUCCCCUGAUAGUGCUAAGGGGGCCUGGAAGUUUGGGCAGGGCAGAGCUCAGCACAGCGUGGCAAAGUGGCUGUGGCUAGACUGCCUCUCUGGAUUCCUCGUCACUCAGCAGGGCAUCUCUGUGAGAAAUGCC, the self-cleavage was 0.13.

In the case of UACGUAGGUGGUUUUCCCCUGAUAGUGCUAAGGGGGCCUGGAAGUUUGGGCUGGGCAGAGCUCAACACAGCGUGACAAAGUGGCUGUGGCUAGACUGCCUCUCAGGAUUCCUCGUCACUCAGCAGGGCAUCUCUGAGAGAGAUGCC, the self-cleavage is 1.22.

For the variant UACGUAGGUGGUUUUCCCCUGAUAGUGCUAAGGGGGCCUGGAAGUUUGGGCUGGGCAGAGCUCAACACGGCGUGGCAAAGUGGCUGUGGCUAGACUGCCUCCCUGGAUUCCUCGUCACUCAGCAGGGCAUCUCUGAGAGAACUGCC, the self-cleavage was 0.

On to UACGUAGGUGGUUUUCCCCUGAUAGUGCUAAGGGGGCCUGGAAGUUUGGGCUGGGCAGAGCUCAACACAGCGUGGCGAAGUGGCUGUGGCUAGACUGCCUCUCUGGAUUCCUCGUCACUCUGCAGGGCAUCUCUGAGAGAAAUGCC, for which the self-cleavage was found to be 2.

Consider UACGUAGGUGGUUUUCCCCUGAUAGUGCUAAGGGGGCCUGGAAGUUUGGGCUGGGCAGAGCUCAACACAGCGUGGCAAAGUGGCUGUGGCUAGUCUGCCUCUCUGGAUUCCUCGUCACUCAGCAGGGCAUCCCUGAGAGGAAUGCC, for which the self-cleavage was 0.28.

Take UACGUAGGUGGUUUUCCCCUGAUAGUGCUAAGGGGGCCUGGAAGUUUGGGCUGGGCAGAGCUCAACACAGCGUGGCAAAGUGGCUGUGGCUAGACUGCCUCUCUGGAUUCCUCGUCACUCAGCAAGGCAUCUCUGAGAGAAGUGCC: the self-cleavage is 0.36.

Regarding UACGUAGGUGGUUUUCCCCUGAUAGUGCUAAGGGGGCCUGGAAGUUUGGGCUGGGCAGAGCUCAACACUGCGUGGCAAAGUGGCUGUGGCUAGACUGCCUCUCUGGAUUCCUCGUCACUCAGCAGGGCAUCUCUGAGUGAAAUGCC, the self-cleavage came to 0.03.

Take UACGUAGGUGGUUUUCCCCUGAUAGUGCUAAGGGGGCCUGGAAGUUUGGGCUGGGCAGAGCCCAACACAGCGUGGCAAAGUGGCUGUGGCUAGACUGCCUCUCUGGAUUCCUCGUCACUCUGCAGGGCAUCUCUGAGGGAAAUGCU: the self-cleavage came to 0.

On to UACGUAGGUGGUUUUCCCCUGAUAGUGCUAAGGGGGCCUGGAAGUUUGGGCUGGGCAGAGCUCAACACAGCGUGGCAAGGUGGCUGUGGCUAGACUGCCUCUCUGGAUUCCUCGUCACUCAGUAGGGCGCCUCUGAGAGAAAUGCC, for which the self-cleavage turned out to be 1.53.

The values are drawn from the RNAGym collection of RNA variant scans (doi:10.7554/elife.90254).
